# Results published in the supplement of paper PMC8728848.
# The list shows a part of the results.
# Legend:
# Assay in all cases: glycan array binding signal (z-score within array); higher = stronger binding
# Settings in all cases: glycan notation: IUPAC condensed, linker removed
# [1] = target: Fuc(a1-3)[Gal(b1-4)]GlcNAc(b1-3)Gal(b1-4)[Fuc(a1-3)]GlcNAc
# How it was run: (§1)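 From the Consortium for Functional Glycomics database, 3228 arrays were curated, keeping only those whose protein sequence was available. Binding is given as a within-array Z-score averaged across arrays sharing a protein sequence and across linkers. Negative Z-scores can be read as non-binding.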
# [2] = target: Fuc(a1-3)[Gal(b1-4)]GlcNAc(b1-3)Gal(b1-4)[Fuc(a1-3)]GlcNAc(b1-3)Gal(b1-4)[Fuc(a1-3)]GlcNAc
# How it was run: as §1
# [3] = target: Fuc(a1-3)[Gal(b1-4)]GlcNAc(b1-3)GalNAc
# How it was run: as §1
# [4] = target: Fuc(a1-3)[Gal(b1-4)]GlcNAc(b1-4)Gal(b1-4)[Fuc(a1-3)]GlcNAc
# How it was run: as §1
# [5] = target: Fuc(a1-3)[Gal(b1-4)]GlcNAc(b1-4)Gal(b1-4)[Fuc(a1-3)]GlcNAc(b1-4)Gal(b1-4)[Fuc(a1-3)]GlcNAc
# How it was run: as §1
# [6] = target: Fuc(a1-3)[Gal(b1-4)]GlcNAc(b1-6)GalNAc
# How it was run: as §1
# [7] = target: Fuc(a1-3)[Gal(b1-4)]GlcNAc(b1-6)[Gal(b1-3)GlcNAc(b1-3)]Gal(b1-4)Glc
# How it was run: as §1
# [8] = target: Fuc(a1-3)[Gal(b1-4)]GlcNAc(b1-6)[Neu5Ac(a2-3)Gal(b1-3)]GalNAc
# How it was run: as §1
# [9] = target: Fuc(a1-3)[Gal(b1-4)]GlcNAc6S
# How it was run: as §1
# [10] = target: Fuc(a1-3)[Gal3S(b1-4)]GlcNAc
# How it was run: as §1
# [11] = target: Fuc(a1-3)[Gal3S(b1-4)]GlcNAc6S
# How it was run: as §1
# [12] = target: Fuc(a1-3)[GalNAc(b1-4)]GlcNAc
# How it was run: as §1
# [13] = target: Fuc(a1-3)[GalNAc(b1-4)]GlcNAc6S
# How it was run: as §1
# [14] = target: Fuc(a1-3)[GalNAc3S(b1-4)]GlcNAc
# How it was run: as §1
# Fuc(a1-4)GlcNAc = target: Fuc(a1-4)GlcNAc
# How it was run: as §1
# Fuc(b1-3)GlcNAc = target: Fuc(b1-3)GlcNAc
# How it was run: as §1
# Gal(a1-2)Gal = target: Gal(a1-2)Gal
# How it was run: as §1
# Gal(a1-3)Gal = target: Gal(a1-3)Gal
# How it was run: as §1
# Gal(a1-3)Gal(b1-3)GlcNAc = target: Gal(a1-3)Gal(b1-3)GlcNAc
# How it was run: as §1
# [15] = target: Gal(a1-3)Gal(b1-3)GlcNAc(b1-2)Man(a1-3)[Gal(a1-3)Gal(b1-3)GlcNAc(b1-2)Man(a1-6)]Man(b1-4)GlcNAc(b1-4)GlcNAc
# How it was run: as §1
# [16] = target: Gal(a1-3)Gal(b1-3)GlcNAc(b1-3)GalNAc
# How it was run: as §1
# [17] = target: Gal(a1-3)Gal(b1-3)GlcNAc(b1-6)GalNAc
# How it was run: as §1
# [18] = target: Gal(a1-3)Gal(b1-3)[Fuc(a1-4)]GlcNAc(b1-2)Man(a1-3)[Gal(a1-3)Gal(b1-3)[Fuc(a1-4)]GlcNAc(b1-2)Man(a1-6)]Man(b1-4)GlcNAc(b1-4)GlcNAc
# How it was run: as §1
# Gal(a1-3)Gal(b1-4)Glc = target: Gal(a1-3)Gal(b1-4)Glc
# How it was run: as §1
# Gal(a1-3)Gal(b1-4)GlcNAc = target: Gal(a1-3)Gal(b1-4)GlcNAc
# How it was run: as §1
# [19] = target: Gal(a1-3)Gal(b1-4)GlcNAc(b1-3)GalNAc
# How it was run: as §1
# [20] = target: Gal(a1-3)Gal(b1-4)GlcNAc(b1-6)GalNAc
# How it was run: as §1
# [21] = target: Gal(a1-3)Gal(b1-4)[Fuc(a1-3)]GlcNAc
# How it was run: as §1
# [22] = target: Gal(a1-3)Gal(b1-4)[Fuc(a1-3)]GlcNAc(b1-2)Man(a1-3)[Gal(a1-3)Gal(b1-4)[Fuc(a1-3)]GlcNAc(b1-2)Man(a1-6)]Man(b1-4)GlcNAc(b1-4)GlcNAc
# How it was run: as §1
# Gal(a1-3)GalNAc = target: Gal(a1-3)GalNAc
# How it was run: as §1
binder,measurement,setting,value
"StcE (Escherichia coli), O82882.2 (protein) ADNNSAIYFNTSQPINDLQGSLAAEVKFAQSQILPAHPKEGDSQPHLTSLRKSLLLVRPVKADDKTPVQVEARDDNNKILGTLTLYPPSSLPDTIYHLDGVPEGGIDFTPHNGTKKIINTVAEVNKLSDASGSSIHSHLTNNALVEIHTANGRWVRDIYLPQGPDLEGKMVRFVSSAGYSSTVFYGDRKVTLSVGNTLLFKYVNGQWFRSGELENNRITYAQHIWSAELPAHWIVPGLNLVIKQGNLSGRLNDIKIGAPGELLLHTIDIGMLTTPRDRFDFAKDKEAHREYFQTIPVSRMIVNNYAPLHLKEVMLPTGELLTDMDPGNGGWHSGTMRQRIGKELVSHGIDNANYGLNSTAGLGENSHPYVVAQLAAHNSRGNYANGIQVHGGSGGGGIVTLDSTLGNEFSHEVGHNYGLGHYVDGFKGSVHRSAENNNSTWGWDGDKKRFIPNFYPSQTNEKSCLNNQCQEPFDGHKFGFDAMAGGSPFSAANRFTMYTPNSSAIIQRFFENKAVFDSRSSTGFSKWNADTQEMEPYEHTIDRAEQITASVNELSESKMAELMAEYAVVKVHMWNGNWTRNIYIPTASADNRGSILTINHEAGYNSYLFINGDEKVVSQGYKKSFVSDGQFWKERDVVDTREARKPEQFGVPVTTLVGYYDPEGTLSSYIYPAMYGAYGFTYSDDSQNLSDNDCQLQVDTKEGQLRFRLANHRANNTVMNKFHINVPTESQPTQATLVCNNKILDTKSLTPAPEGLTYTVNGQALPAKENEGCIVSVNSGKRYCLPVGQRSGYSLPDWIVGQEVYVDSGAKAKVLLSDWDNLSYNRIGEFVGNVNPADMKKVKAWNGQYLDFSKPRSMRVVYK",glycan array binding signal (z-score),[1],0.176
same,glycan array binding signal (z-score),[2],-0.915
same,glycan array binding signal (z-score),[3],-0.124
same,glycan array binding signal (z-score),[4],-0.114
same,glycan array binding signal (z-score),[5],0.093
same,glycan array binding signal (z-score),[6],-0.134
same,glycan array binding signal (z-score),[7],-0.173
same,glycan array binding signal (z-score),[8],0.102
same,glycan array binding signal (z-score),[9],-0.15
same,glycan array binding signal (z-score),[10],0.099
same,glycan array binding signal (z-score),[11],-0.11
same,glycan array binding signal (z-score),[12],-0.156
same,glycan array binding signal (z-score),[13],-0.031
same,glycan array binding signal (z-score),[14],-0.164
same,glycan array binding signal (z-score),Fuc(a1-4)GlcNAc,-0.146
same,glycan array binding signal (z-score),Fuc(b1-3)GlcNAc,-0.359
same,glycan array binding signal (z-score),Gal(a1-2)Gal,-0.153
same,glycan array binding signal (z-score),Gal(a1-3)Gal,-0.371
same,glycan array binding signal (z-score),Gal(a1-3)Gal(b1-3)GlcNAc,-0.11
same,glycan array binding signal (z-score),[15],-0.061
same,glycan array binding signal (z-score),[16],0.272
same,glycan array binding signal (z-score),[17],-0.144
same,glycan array binding signal (z-score),[18],4.13
same,glycan array binding signal (z-score),Gal(a1-3)Gal(b1-4)Glc,-0.25
same,glycan array binding signal (z-score),Gal(a1-3)Gal(b1-4)GlcNAc,0.091
same,glycan array binding signal (z-score),[19],-0.089
same,glycan array binding signal (z-score),[20],-0.141
same,glycan array binding signal (z-score),[21],0.116
same,glycan array binding signal (z-score),[22],-0.107
same,glycan array binding signal (z-score),Gal(a1-3)GalNAc,-0.129
